Source: the supplement of paper PMC3334620
In all, about 33,000 sequences were measured (“E-score (-0.5 to 0.5)”: median about -0.016, highest 2% from about 0.32 on). The list shows a part of the results.

What follows are sequences tested against T1, Stp1 (UniProt B3LFK1) (assay: PBM E-score (8-mer binding enrichment) (E-score (-0.5 to 0.5)); higher = stronger / more preferred TF binding; most listed sequences are background and not binding sites). Conditions: protein concentration: 200 nM; construct: GST-full length.
T1 sequence: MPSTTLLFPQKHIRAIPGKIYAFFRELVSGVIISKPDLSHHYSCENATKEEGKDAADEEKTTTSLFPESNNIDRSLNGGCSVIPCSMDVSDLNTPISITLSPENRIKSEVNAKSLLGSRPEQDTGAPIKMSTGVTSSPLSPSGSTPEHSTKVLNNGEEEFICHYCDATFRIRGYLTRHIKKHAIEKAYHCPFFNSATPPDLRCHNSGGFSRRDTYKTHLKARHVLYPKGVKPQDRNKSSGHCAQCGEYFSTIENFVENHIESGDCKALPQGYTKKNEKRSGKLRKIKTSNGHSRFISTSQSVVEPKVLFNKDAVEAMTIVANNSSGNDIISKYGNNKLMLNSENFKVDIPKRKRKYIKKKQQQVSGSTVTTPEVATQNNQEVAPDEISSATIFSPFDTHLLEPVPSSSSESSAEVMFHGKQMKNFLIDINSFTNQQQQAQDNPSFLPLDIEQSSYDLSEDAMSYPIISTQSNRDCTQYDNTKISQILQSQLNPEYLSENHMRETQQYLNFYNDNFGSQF
Summary of the method: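 Universal all-10-mer Agilent arrays, fresh or stripped once, were converted to double-stranded form by primer extension. GST-tagged yeast transcription factors from PURExpress in vitro transcription/translation, full-length or DNA-binding domain only, were applied at about 100-200 nM and detected with fluorescent anti-GST. After masliner normalisation, the Universal PBM Analysis Suite scored each ungapped eight-base word together with its reverse complement by E-score.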

Row | Sequence | PBM E-score
1 | CCTGATAG | -0.234
2 | ATCGGTCC | -0.132
3 | CCAGCATA | -0.265
4 | ACACTTCA | -0.176
5 | CTTCAGGA | 0.0371
6 | AGTCAAAA | 0.133
7 | GAGTCGAA | -0.174
8 | ATGATTCC | 0.115
9 | ACTTTACC | -0.0478
10 | TGGGATAA | -0.0721
11 | TCCTAGGA | 0.0231
12 | CCCCCCTA | -0.397
13 | CGCATATA | 0.0132
14 | GGCGCGTA | 0.186
15 | GATATTCC | 0.0635
16 | TATGCACA | -0.0744
17 | TAAAGTAA | 0.0333
18 | ACCTCAAG | -0.0455
19 | CATTGAAC | 0.0944
20 | AATGACAT | -0.00671
21 | CTTCATGC | -0.058
22 | AGCGTCAC | -0.144
23 | CTTGACCC | -0.248
24 | AGATCAGG | -0.173
25 | GTTCTATA | 0.124

Row | Sequence | PBM E-score
26 | GAAAGTAA | 0.00904
27 | AAGTGACG | -0.00161
28 | ACCGCCAG | -0.179
29 | CCCATAGA | -0.325
30 | GTGCGCAC | 0.158
31 | CGCTAAAA | 0.14
32 | ACATCGGT | -0.226
33 | AAGAGCAA | -0.248
34 | GGGGCATA | -0.118
35 | AATGCAGC | -0.16
36 | ACCAAAAG | 0.187
37 | CCGGATAG | 0.00852
38 | TCATCCCA | -0.163
39 | AGTATTCA | 0.0273
40 | GACTCTAA | -0.126
41 | CCAGTAAA | -0.0637
42 | AGGCTGCG | 0.00283
43 | CCTGGGCC | -0.181
44 | TAATTTCA | 0.242
45 | ACCGAGTG | -0.0999
46 | TCATAAGA | -0.00833
47 | TACATCCA | 0.00245
48 | CGCGGTAC | 0.155
49 | ACAGAGAA | -0.0516
50 | CGGCCGAC | 0.0963

Row | Sequence | PBM E-score
51 | CTAGGTGC | -0.196
52 | GTAAGTCA | -0.0496
53 | ACTGGCGG | -0.0959
54 | CCTTTAAG | -0.207
55 | ACCGGCGG | 0.0942
56 | TATTGAGA | 0.0944
57 | GTGGAAGA | -0.0607
58 | CGACCGGA | -0.185
59 | CCTGTAAG | -0.144
60 | GCATCAAC | 0.17
61 | AAAATTTA | 0.0665
62 | ACTTCCCA | -0.109
63 | ACGCCCGA | -0.19
64 | CGAAAAAG | 0.134
65 | AATCAAGT | 0.119
66 | ACTAGAAT | -0.0535
67 | AACTATGT | -0.0699
68 | CCGGGGAG | -0.176
69 | ACCAGGGA | -0.208
70 | ATGCACAT | 0.0286
71 | ACTTCCAA | -0.0332
72 | ATTTGTCA | 0.00364
73 | ATGTAAGA | 0.238
74 | ACACGACG | -0.106
75 | CGGCTGGC | -0.0537

Row | Sequence | PBM E-score
76 | CCGTAACA | 0.149
77 | AAAGAAGG | -0.0209
78 | AGCATTTG | -0.0324
79 | ATAATGTC | -0.0933
80 | GCGAAAGC | -0.00098
81 | AGTACAGG | 0.0326
82 | AAGGGCTC | -0.0205
83 | GATAAAGA | -0.0534
84 | ACAGATTG | -0.051
85 | CACTCATA | 0.154
86 | CGATGCCA | 0.105
87 | AATTGTTG | -0.0553
88 | ACCACCTG | -0.113
89 | GCAGTCAC | -0.213
90 | GTGACTCA | 0.0306
91 | ACGCGCAA | 0.165
92 | CAAACCGC | 0.0838
93 | CCATCCGG | -0.32
94 | CGATATAA | -0.0147
95 | CCGGAAAA | 0.0513
96 | AGAATTGG | -0.0523
97 | ACCAATGC | 0.045
98 | AATTTGGA | 0.0489
99 | CAAAGTAA | 0.0712
100 | ACCCTTCG | -0.0653

Row | Sequence | PBM E-score
101 | ACTTCAAA | -0.215
102 | CAAGTCGG | -0.0998
103 | ACTTTCGG | -0.289
104 | AACGATTC | 0.0142
105 | GTAGGCAC | 0.198
106 | CTACACAG | -0.0726
107 | TCGGTCCA | 0.00548
108 | GTACTGTA | -0.149
109 | ATGGCGAC | 0.0528
110 | ACTAATAG | 0.153
111 | GATTTTCC | -0.0511
112 | AAACTGAC | -0.201
113 | CTCTTCAA | -0.125
114 | ACGAACTA | -0.00686
115 | CTACGGTA | -0.146
116 | AAACACAG | 0.0351
117 | TCGTCAAA | 0.159
118 | CCCGTTAC | -0.0391
119 | AAGCTCCG | 0.0533
120 | AGCGAAGA | -0.0506
121 | AAACTGCT | -0.16
122 | CCTGCTTA | -0.0853
123 | CTGCTGTA | -0.0802
124 | GAGATGTA | -0.143
125 | GAAGAAGA | -0.0873

Row | Sequence | PBM E-score
126 | CGGGGTGC | 0.0645
127 | AAACTGTC | -0.12
128 | ATCCCCTC | -0.285
129 | CGTACGAA | 0.186
130 | AACTGCCT | 0.0172
131 | CTTGTTAA | 0.122
132 | ATACAGAT | 0.0901
133 | AAATATCA | 0.174
134 | CCCGATAC | -0.242
135 | GTGCCAAA | 0.119
136 | AAGTTACC | 0.0332
137 | CTACGAAC | 0.168
138 | CCGGCCCA | -0.21
139 | AAGGGTTG | -0.145
140 | ACTAGTCA | -0.157
141 | CTCGCATA | 0.0401
142 | GAAACGTC | -0.0114
143 | CCAATAGG | 0.0256
144 | ATGGTCTA | -0.0594
145 | CTATTAGA | -0.0335
146 | TCTGAACA | -0.0325
147 | CGCGGCGA | 0.451
148 | AACGGACG | 0.0236
149 | CTACTTTC | 0.0804
150 | ATGTTCTC | -0.234

Row | Sequence | PBM E-score
151 | ATGTCAGC | -0.019
152 | ACGGTTCT | 0.0457
153 | AGCCGGGA | -0.089
154 | CTTTAACA | 0.161
155 | GTTAATTA | 0.106
156 | AGAGTGAT | -0.0712
157 | CGGCGAAC | 0.317
158 | ATTCAAAA | 0.25
159 | CGGTTGTA | -0.0398
160 | TGATGCCA | 0.288
161 | GTTGAGGA | 0.136
162 | GTGTGCGA | -0.00917
163 | CGGTCGAC | -0.0792
164 | AAAATAAA | 0.124
165 | CCGCATTA | 0.209
166 | ATACCCTC | -0.0668
167 | CTTTGTGC | 0.203
168 | TCCACTCA | -0.0458
169 | AGTTATGA | -0.0432
170 | ATCGAGTA | -0.128
171 | GGGTAGAA | 0.0651
172 | ATGAAATA | 0.143
173 | ACCCAACG | -0.101
174 | ATCCATAC | -0.0143
175 | GGGAGTAC | -0.2

Row | Sequence | PBM E-score
176 | GCCCTGAA | -0.0439
177 | TGAACTCA | -0.0569
178 | CCTAAAGC | 0.00183
179 | AATCGCTA | -0.0893
180 | AAACTCCC | -0.251
181 | AAGATTAG | 0.0851
182 | GCAGGCCC | -0.362
183 | CTTCAACC | 0.0869
184 | CCCATTCC | -0.342
185 | ATATGGAC | -0.0467
186 | ACGATGCT | -0.0649
187 | AACTAGAA | 0.0373
188 | GTCAGGAC | -0.109
189 | CCTAACCC | -0.24
190 | GTGGTCTA | -0.307
191 | GCCTTAGC | 0.281
192 | ATTTTCGA | 0.115
193 | GATGTCCC | -0.299
194 | CAGTTGAC | 0.0275
195 | CCGCGCCA | 0.252
196 | GCGTTGAA | 0.138
197 | AATAGAAC | 0.0648
198 | CACGGCCC | 0.337
199 | CTTGGGAA | 0.103
200 | CTAGTAGA | 0.0413

Row | Sequence | PBM E-score
201 | AGCGCCCG | -0.00709
202 | ACACCGTC | -0.075
203 | CGGACTGC | -0.0939
204 | AATGCATG | 0.00781
205 | ATTGAGCG | -0.0277
206 | CGTAAATA | 0.244
207 | ATTTTCCG | 0.228
208 | AATCTTGA | -0.0147
209 | ATTCGTTA | 0.0278
210 | GCCCGGTA | -0.322
211 | GGTTTCAA | -0.0223
212 | GTCGATCA | -0.196
213 | ACTTTCTC | -0.167
214 | GGGGTCAA | -0.185
215 | AAACGAGA | 0.0632
216 | AATGCTTA | -0.0581
217 | CGCCCGCA | 0.128
218 | CACGCTAA | 0.0887
219 | AGCATGCC | 0.0256
